# The supplement of paper PMC12217912
# This is one part of the list. The full chains were built here from the parent and the listed change. Inactive controls read about 0.05.
# B1: TEV protease; numbered along this chain (parent)
# chain: MGESLFKGPRDYNPISSSICHLTNESDGHTTSLYGIGFGPFIITNKHLFRRNNGTLVVQSLHGVFKVKDTTTLQQHLVDGRDMIIIRMPKDFPPFPQKLKFREPQREERICLVTTNFQTKSMSSMVSDTSCTFPSGDGIFWKHWIQTKDGQCGSPLVSTRDGFIVGIHSASNFTNTNNYFTSVPKNFMELLTNQEAQQWVSGWRLNADSVLWGGHKVFMVKPEEPFQPVKEATQL
# Variants of: B1
# Experiment: raw area under fraction-flipped curve 0-4 h after induction (AUC4h, not background-subtracted), DNA-recorder readout of cleavage of the substrate (dimensionless); higher = more cleavage of the substrate by the protease variant
# Details: temperature: 34 °C; time window: 0-4 h after rhamnose induction
# 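Note: Bxb1 expression induced with 0.2% (w/v) L-rhamnose at OD600 near 0.5, cultures sampled hourly, flipped fraction per protease–substrate barcode pair counted by paired-end Illumina sequencing.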
Variant,area with substrate ENLCFQS,area with substrate ENLDFQS,area with substrate ENLEFQS,area with substrate ENLFFQS,area with substrate ENLHFQS,area with substrate ENLIFQS,area with substrate ENLKFQS,area with substrate ENLLFQS,area with substrate ENLNFQS,area with substrate ENLRFQS,area with substrate ENLSFQS,area with substrate ENLWFQS,area with substrate ENLPFQS,area with substrate ENLQFQS,area with substrate ENLVFQS,area with substrate ENLMFQS,area with substrate ENLGFQS,area with substrate ENLTFQS
M122D,0.0795,0.0649,0.0683,0.0736,0.0655,0.0843,0.0718,0.0833,0.0588,0.0688,0.0629,0.0625,,,,,,
M122G,0.0712,0.0649,0.0583,0.114,,,,,0.0568,0.0614,,,0.0541,0.0681,,,,
N206E,0.0735,0.069,0.0618,0.0956,0.0839,0.083,0.0876,,0.0592,0.0649,0.0533,0.0772,,0.0784,0.0772,,,
N206I,0.119,0.0717,0.0753,0.0978,0.0576,0.0521,0.0787,0.0509,0.053,,0.0632,0.0564,0.0561,0.0712,,0.0656,,
D161P,0.0543,,0.041,,0.0412,,0.0534,,,,,,,,,,,
D149C,0.0777,0.0658,0.0569,0.108,0.0815,0.098,0.0829,,0.0373,,0.0859,0.0646,,,,,,
N172F,0.0552,,,,0.0769,,0.057,,,0.0604,,,0.057,,0.0644,0.0615,0.0785,
T44V,0.0621,0.0555,0.063,0.0612,,0.0624,0.067,,0.069,0.0617,0.062,,0.0643,0.052,,,,
Q151F,0.0498,,,,,0.0609,0.0671,,,,,,,,,0.0778,0.0459,
E189S,0.0685,,0.0402,,0.0296,0.074,0.0718,,0.0592,,0.0822,,,,,,,
E189W,0.0779,0.0625,,0.0807,0.0642,0.0728,0.0865,,0.0666,0.0637,0.0686,,0.0513,0.0699,0.0883,,0.0685,
P225S,0.0969,0.0704,,0.079,0.0831,0.0751,0.0915,0.0764,,0.0971,0.0441,0.0637,,,,,,
I86A,0.0613,,,0.067,0.0461,,0.0602,,0.0555,,0.0668,,,,,0.0404,,0.0545
K120M,0.0966,0.0702,0.0551,0.0614,0.0557,0.0365,0.0857,,0.0681,,0.0478,0.0486,0.0644,,,0.0779,,
D208G,0.028,0.0631,,,0.071,,0.0869,0.0328,0.0614,,0.0745,,0.0818,,0.0829,,,
V58Q,0.0546,0.0416,0.0645,0.0557,0.0519,,,,0.0601,0.0521,,,0.0442,0.0662,,,,
F218Y,0.0615,,,0.0852,0.0713,,0.0779,,,,0.0577,0.0661,0.0218,0.0526,,0.0459,0.0626,
